Columns and labels:
ASPC1 cells = experiment: Inhibition of KRas-mediated phosphorylation of ERK (Cisbio HTRF pERK), ASPC1 cells; format: cell-based; settings: Homo sapiens, ASPC1, 3 h, AsPC-1 cells; 3 hr compound incubation; Cisbio pERK HTRF
KRas G12C = KRas G12C (Homo sapiens, UniProt P01116, G12C); format: binding; settings: for inhibition at 0.01 µM: single point, 10 nM compound, read-out: Binding to KRas (% inhibition at 10 nM) G12C
MKN1 cells = experiment: Inhibition of KRas-mediated phosphorylation of ERK (Cisbio HTRF pERK), MKN1 cells; format: cell-based; settings: Homo sapiens, MKN-1, 3 hour compound incubation
Outline: (§1)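 Growth medium is RPMI with 10% FBS, and each well receives 6,000 cells on the first day of the protocol.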

KRas G13D = KRas G13D (Homo sapiens, UniProt P01116, G13D); format: binding; settings: for inhibition at 0.01 µM: single point, 10 nM compound, read-out: Binding to KRas (% inhibition at 10 nM) G13D
PSN1 cells = experiment: Inhibition of KRas-mediated phosphorylation of ERK (Cisbio HTRF pERK), PSN1 cells; format: cell-based; settings: Homo sapiens, PSN1, 3 h, 3 hour compound incubation, Cisbio pERK HTRF
Outline: as §1

KRas WT = KRas WT (Homo sapiens, UniProt P01116); experiment: KRas binding assay (TR-FRET displacement), KRas WT; settings: for inhibition at 0.01 µM: single point, 10 nM compound
A549 cells = experiment: Inhibition of KRas-mediated phosphorylation of ERK (Cisbio HTRF pERK), A549 cells; format: cell-based; settings: Homo sapiens; for IC50: A549, 3 h, 3 hr compound incubation, Cisbio pERK HTRF
KRas G12A = KRas G12A (Homo sapiens, UniProt P01116, G12A); format: binding; settings: for inhibition at 0.01 µM: single point, 10 nM compound, read-out: Binding to KRas (% inhibition at 10 nM) G12A
HCT116 cells = experiment: Inhibition of KRas-mediated phosphorylation of ERK (Cisbio HTRF pERK), HCT116 cells; format: cell-based; settings: Homo sapiens; for IC50: HCT-116, 3 h, 3 hr compound incubation, Cisbio pERK HTRF; for inhibition at 0.1 µM: HCT-116, single point at 100 nM, 3 hrs compound incubation
H460 cells = experiment: Inhibition of KRas-mediated phosphorylation of ERK (Cisbio HTRF pERK), H460 cells; format: cell-based; settings: Homo sapiens; for IC50: NCI-H460, 3 h, 3 hr compound incubation, Cisbio pERK HTRF; for inhibition at 0.1 µM: NCI-H460, single point at 100 nM, 3 hrs compound incubation
H727 cells = experiment: Inhibition of KRas-mediated phosphorylation of ERK (Cisbio HTRF pERK), H727 cells; format: cell-based; settings: Homo sapiens, NCI-H727, 3 h, 3 hr compound incubation, Cisbio pERK HTRF
KRas Q61H = KRas Q61H (Homo sapiens, UniProt P01116, Q61H); experiment: KRas binding assay (TR-FRET displacement), KRas Q61H; settings: for inhibition at 0.01 µM: single point, 10 nM compound
H358 cells = experiment: Inhibition of KRas-mediated phosphorylation of ERK (Cisbio HTRF pERK), H358 cells; format: cell-based; settings: Homo sapiens; for IC50: NCI-H358, 3 h, 3 hr compound incubation, Cisbio pERK HTRF
KRas G12S = KRas G12S (Homo sapiens, UniProt P01116, G12S); format: binding; settings: for inhibition at 0.01 µM: single point, 10 nM compound, read-out: Binding to KRas (% inhibition at 10 nM) G12S

Structure (SMILES): CCc1c(F)ccc2cc(O)cc(N3CCc4c(nc(OC[C@@]56CCCN5C[C@H](F)C6)nc4N4CCCn5nc(C(=O)NC(C)C)c(F)c5C4)C3)c12 [Example 366, 5-(7-(8-ethyl-7-fluoro-3-hydroxynaphthalen-1-yl)-2-(((2R,7aS)-2-fluorohexahydro-1H-pyrrolizin-7a-yl)methoxy)-5,6,7,8-tetrahydropyrido[3,4-d]pyrimidin-4-yl)-3-fluoro-N-isopropyl-5,6,7,8-tetrahydro-4H-pyrazolo[1,5-a][1,4]diazepine-2-carboxamide]
- IC50 (ASPC1 cells): 4 nM
- inhibition at 0.01 µM (KRas G12C): 99%
- IC50 (MKN1 cells): 4.6 nM
- inhibition at 0.01 µM (KRas G13D): 94%
- IC50 (PSN1 cells): 4630 nM
- inhibition at 0.01 µM (KRas WT): 94%
- IC50 (A549 cells): 19 nM
- inhibition at 0.01 µM (KRas G12A): 95%
- IC50 (HCT116 cells): 92 nM
- inhibition at 0.1 µM (HCT116 cells): 37%
- IC50 (H460 cells): 35 nM
- inhibition at 0.1 µM (H460 cells): 59%
- IC50 (H727 cells): 4 nM
- inhibition at 0.01 µM (KRas Q61H): 95%
- IC50 (H358 cells): 4 nM
- inhibition at 0.01 µM (KRas G12S): 98%

Structure (SMILES): O=S1(=O)NCC2(CCCN(c3nc(OC[C@@]45CCCN4C[C@H](F)C5)nc4c3CCN(c3c5ccccc5cc5[nH]ncc35)C4)C2)N1 (stereo partly drawn) [Example 612, 7-(7-(1H-benzo[f]indazol-4-yl)-2-(((2R,7aS)-2-fluorotetrahydro-1H-pyrrolizin-7a(5H)-yl)methoxy)-5,6,7,8-tetrahydropyrido[3,4-d]pyrimidin-4-yl)-2-thia-1,3,7-triazaspiro[4.5]decane 2,2-dioxide]
- IC50 (ASPC1 cells): 58 nM
- IC50 (KRas G12C; TR-FRET displacement, read-out: Binding to KRas (IC50 nM) G12C): < 2 nM
- IC50 (MKN1 cells): 19.4 nM
- IC50 (KRas G13D; TR-FRET displacement, read-out: Binding to KRas (IC50 nM) G13D): < 2 nM
- IC50 (PSN1 cells): 1140 nM
- IC50 (KRas WT; TR-FRET displacement): 8 nM
- IC50 (A549 cells): 83 nM
- IC50 (KRas G12A; TR-FRET displacement, read-out: Binding to KRas (IC50 nM) G12A): < 2 nM
- IC50 (HCT116 cells): 92 nM
- IC50 (H460 cells): 129 nM
- IC50 (H727 cells): 41 nM
- IC50 (KRas Q61H; TR-FRET displacement): 10 nM
- IC50 (H358 cells): 16 nM
- IC50 (KRas G12S; TR-FRET displacement, read-out: Binding to KRas (IC50 nM) G12S): < 2 nM

Structure (SMILES): CCc1c(F)ccc2cc(O)cc(N3CCc4c(nc(OC[C@@]56CCCN5C[C@H](F)C6)nc4N4CCCn5nc(S(=O)(=O)N(C)C)cc5C4)C3)c12 [Example 326, 5-(7-(8-ethyl-7-fluoro-3-hydroxynaphthalen-1-yl)-2-(((2R,7aS)-2-fluorohexahydro-11H-pyrrolizin-7a-yl)methoxy)-5,6,7,8-tetrahydropyrido[3,4-d]pyrimidin-4-yl)-N,N-dimethyl-5,6,7,8-tetrahydro-4H-pyrazolo[1,5-a][1,4]diazepine-2-sulfonamide]
- IC50 (ASPC1 cells): 78 nM
- inhibition at 0.01 µM (KRas G12C): 77%
- IC50 (MKN1 cells): 14.7 nM
- inhibition at 0.01 µM (KRas G13D): 87%
- IC50 (PSN1 cells): > 10000 nM
- inhibition at 0.01 µM (KRas WT): 84%
- inhibition at 0.1 µM (A549 cells; single point at 100 nM, 3 hrs compound incubation): 34%
- inhibition at 0.01 µM (KRas G12A): 61%
- inhibition at 0.1 µM (HCT116 cells): 26%
- inhibition at 0.1 µM (H460 cells): 48%
- IC50 (H727 cells): 296 nM
- inhibition at 0.01 µM (KRas Q61H): 86%
- inhibition at 0.1 µM (H358 cells; NCI-H358, single point at 100 nM, 3 hrs compound incubation): 13%
- inhibition at 0.01 µM (KRas G12S): 81%

Source: patent publication US20250368649A1, “TETRAHYDROPYRIDOPYRIMIDINE PAN-KRAS INHIBITORS” (Mirati Therapeutics, Inc., priority 2022, published 2025)
